Measured values from PubChem BioAssay AID651820 (National Center for Advancing Translational Sciences (NCATS), 2012).
In all, about 340,000 compounds went through this assay and about 12,000 (3.5%) were called active. The shares of active, inactive and inconclusive entries below differ from those in the screen. Calls follow the shape of the dose curve; as a rule, active = well fitted inhibition curve with a large enough effect; inconclusive = small, poorly fitted or top-dose-only effect, or another doubt; inactive = no such curve, though single readings can be large or run the other way. Potencies of inconclusive entries are left out as doubtful fits. More than one record can exist for a structure, and the calls need not agree.

Test: qHTS Assay for Inhibitors of Hepatitis C Virus (HCV)
Details: Huh7.5.1 HCVcc-Cre (HCVcc is cell-culture hepatitis C virus) infection, luciferase reporter, 44 h; activity change, negative = inhibition: at 41.8 µM (top of the series) unless noted
In short: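 Cells seeded at 1,000/well and cultured 4 h, then compounds added followed by HCVcc-Cre virus (~0.5 moi). After 44 h further culture, luciferase substrate was added, plates held 15 min at room temperature, and luminescence read for 15 sec.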
% is scaled to controls: 0 for no effect and ±100 for the full control effect; potency is read from the fitted curve at half-maximal effect; tags tell the direction and shape of the fitted curve.

Row | SMILES | activity change, negative = inhibition | Potency
1 | O=C1CSC(=Nc2cccc([N+](=O)[O-])c2)N1 | inactive: 8.44% | –
2 | CC1=C(C#N)C(/C=N/OCc2ccc(F)cc2Cl)CC(=O)N1 (stereo unspecified) | inactive: 1.85% | –
3 | CC(=O)Nc1cc(C(F)(F)F)ccc1Oc1cccc(Br)c1 | inactive: -27.5% | –
4 | CCCn1nnnc1NC(=O)CSc1ccc(Cl)cc1 | – | inconclusive [inhibitor, full curve, poor fit]
5 | COc1ccccc1/C=C/C=N/NC(=O)CN1CCN(S(=O)(=O)c2ccc(C)cc2)CC1 | – | inconclusive [inhibitor, partial curve]
6 | C/C(=N\NC(=O)c1cc(Br)ccc1O)c1ccccn1 | inactive: 3.96% | –
7 | Cc1ccc(S(=O)(=O)[N-]c2nc3ccccc3nc2-n2cc[n+](Cc3ccccc3)c2)cc1 | – | inconclusive [inhibitor, single point]
8 | NC1=NC2(CCCCC2)N=C(Nc2ccc(Br)cc2)N1 | – | inconclusive [inhibitor, partial curve, poor fit]
9 | CCCOc1ccc(N2CC(C(=O)Nc3ccccc3C(=O)NCc3ccco3)CC2=O)cc1 (stereo unspecified) | – | inconclusive [inhibitor, full curve, poor fit]
10 | CS(=O)(=O)N(CC(=O)Nc1ccc2c(c1)OCO2)Cc1ccc(Cl)cc1 | inactive: 6.34% | –
11 | CCN1C(=O)/C(=C/c2ccc(C)o2)N(C)C1=S | inactive: 1.68% | –
12 | Cc1cccc2c1NC(=O)C21N2CCCC2C(C(=O)c2ccc3ccccc3c2)C12C(=O)Nc1ccccc12 (stereo unspecified) | – | inconclusive [inhibitor, single point]
13 | Cc1cc(C)n2nc(SCC(=O)Nc3ccc(S(=O)(=O)N(C)C)cc3)nc2n1 | – | inconclusive [inhibitor, single point]
14 | COc1ccccc1[C@H]1C(c2cccc(C)c2)=NN(c2ccccc2)[C@@H]1CO | – | inconclusive [inhibitor, full curve]
15 | CCc1ccc(-c2csc(NC(=O)c3cccnc3)n2)cc1 | – | inconclusive [inhibitor, single point]
16 | Cc1ccc(S(=O)(=O)N2CCN(C(=O)CCC(=O)NC3CCCc4ccccc43)CC2)cc1 (stereo unspecified) | – | inconclusive [inhibitor, partial curve, poor fit]
17 | Cc1cc(N2CCCC2)ccc1NC(=O)COc1cccc(C(F)(F)F)c1 | – | active: 12.6 µM
18 | COc1ccc(S(=O)(=O)N2CCOCC2)cc1NC(=O)CSc1nnc2c(n1)[nH]c1ccccc12 | – | inconclusive [inhibitor, single point]
19 | COc1ccc(-c2cc(C(F)(F)F)n3nc(C(=O)NCCN4CCOCC4)cc3n2)cc1 | – | inconclusive [inhibitor, partial curve]
20 | Cc1ccc(C(=O)NCCn2ccc3ccccc32)cc1[N+](=O)[O-] | inactive: -26.8% | –
21 | Cc1ccc(-n2ncc3c(=O)n(CC(=O)N(C(C)C)C(C)C)cnc32)cc1 | inactive: -2.97% | –
22 | Cc1ccc(NC(=O)C2CC(=O)N(c3ccc4c5c(cccc35)CC4)C2)cc1 (stereo unspecified) | – | inconclusive [inhibitor, partial curve]
23 | CCn1c(-c2ccccc2)c(C(=O)CCl)c2ccccc21 | – | active: 8.91 µM
24 | COc1ccc(C(=O)Nc2ccc(N3CCCC3)cc2)cc1OC | – | inconclusive [inhibitor, partial curve]

Row | SMILES | activity change, negative = inhibition | Potency
25 | COc1ccc(C(=O)NC(=S)NCc2cccnc2)cc1[N+](=O)[O-] | – | inconclusive [inhibitor, single point]
26 | Nc1cc2c(cc1Br)-c1ccc(F)cc1C2=O | – | active: 12.6 µM
27 | COc1ccc(C(=O)N2CCN(Cc3ccc4c(c3)OCO4)CC2)cc1OC | – | inconclusive [inhibitor, partial curve]
28 | COc1ccc(C2CC(c3cccs3)=NN2C(=O)CSc2nncn2C)cc1OC (stereo unspecified) | inactive: 1.55% | –
29 | CN1CCc2c(sc3nc(NN)n(Cc4ccccc4)c(=O)c23)C1 | – | inconclusive [inhibitor, full curve]
30 | Cc1nn(CCCC(=O)NCCc2ccccc2)c(C)c1[N+](=O)[O-] | inactive: 7.56% | –
31 | O=C(CSc1nc(=O)n2ccccc2n1)N1N=C(c2cccs2)CC1c1ccc(F)cc1 (stereo unspecified) | – | inconclusive [inhibitor, single point]
32 | COc1cc(/C=N/Nc2cccc3cccnc23)cc(OC)c1O | – | active: 22.4 µM
33 | COc1ccccc1C(=O)OC(C)CN1CCN(C)CC1 (stereo unspecified) | inactive: -2.86% | –
34 | O=C(Nc1ccncc1)C1CCN(S(=O)(=O)c2ccc(Cl)c(C(F)(F)F)c2)CC1 | – | inconclusive [inhibitor, single point]
35 | CCOc1ccc(C(c2nnnn2C(C)(C)C)N2CCN(C(=O)c3ccco3)CC2)cc1 (stereo unspecified) | inactive: 6.52% | –
36 | COc1cc(S(=O)(=O)NCc2ccncc2)c(OC)cc1Cl | – | inconclusive [inhibitor, single point]
37 | Cc1ccc(CN2CCCN(Cc3ccccc3C)S2(=O)=O)cc1 | inactive: 3.27% | –
38 | O=S(=O)(NCc1ccncc1)c1ccccc1 | – | inconclusive [inhibitor, single point]
39 | COc1ccc(-c2nc(CSCC(=O)NC3CC3)c(C)o2)cc1OC | inactive: 0.263% | –
40 | Cc1[nH]c2ccccc2c1/C=C(/C#N)C(=O)NC(C)C | – | inconclusive [inhibitor, single point]
41 | O=C(CCN1C(=O)/C(=C\C=C\c2ccccc2)SC1=S)Nc1cccc(C(=O)O)c1 | inactive: 14.9% | –
42 | CCOC(=O)Cn1cnc2sc3c(c2c1=O)CCC3 | – | inconclusive [inhibitor, partial curve]
43 | CCc1cccc(NC(=O)CN(c2ccc(C)cc2)S(=O)(=O)c2c(C)noc2C)c1 | – | inconclusive [inhibitor, single point]
44 | COc1ccc(C)cc1-n1c(SCC(=O)Nc2cc(C)on2)nc2sc(C)c(C)c2c1=O | – | inconclusive [inhibitor, partial curve]
45 | Cc1nc2sc(C(c3cccs3)N3CCOCC3)c(O)n2n1 (stereo unspecified) | inactive: 13% | –
46 | COc1ccc(N2CC(C(=O)Nc3nc(-c4ccccc4)c(C(C)=O)s3)CC2=O)c(OC)c1 (stereo unspecified) | – | inconclusive [inhibitor, partial curve]
47 | COc1cc(Cl)c(CC(=O)c2c[nH]c3ccccc23)cc1OC | – | inconclusive [inhibitor, single point]
48 | O=C(c1c(F)cccc1F)N(Cc1cccs1)C1CCCC1 | – | inconclusive [inhibitor, single point]

Row | SMILES | activity change, negative = inhibition | Potency
49 | O=C(CNc1cccc(S(=O)(=O)N2CCCC2)c1)Nc1ccc(F)c(F)c1 | – | inconclusive [inhibitor, single point]
50 | COC(=O)c1c(NC(=S)NN2CCOCC2)sc2c1CCCC2 | – | inconclusive [inhibitor, single point]
51 | O=C(Nc1cccc(C(F)(F)F)c1)Nc1ccc(N2CCCC2)c(S(=O)(=O)Nc2ccccc2Cl)c1 | – | active: 2.24 µM
52 | COc1ccc(Cl)cc1NC(=O)CSC1=NN2CCCC(=O)N=C2S1 | – | inconclusive [inhibitor, single point]
53 | CCOC(=O)c1ccccc1NC(=O)CSc1nnc(COc2ccccc2)n1CC | – | inconclusive [inhibitor, partial curve, poor fit]
54 | CCN(C(=O)CSc1cc(-c2ccccc2)c2ccc(OC)cc2n1)C1CCS(=O)(=O)C1 (stereo unspecified) | – | inconclusive [inhibitor, single point]
55 | CCc1c(C)nc2cc(-c3ccc(OC)c(OC)c3)nn2c1N1CCCC1 | – | active: 1.78 µM
56 | Cc1ccc2nc(-c3ccc(NC(=O)c4cccnc4)cc3)oc2c1 | – | active: 10 µM
57 | COc1ccc(Cc2nccc3cc(OC)c(OC)cc23)cc1OC | inactive: -0.431% [at 8.37 µM] | active: 3.16 µM
58 | CCCCn1c(SCC(=O)N2c3ccccc3Sc3ccccc32)nc2c1c(=O)n(C)c(=O)n2C | – | inconclusive [inhibitor, partial curve, poor fit]
59 | Cc1ccc(C)c(N2CCN(S(=O)(=O)c3ccc4c(c3)oc(=O)n4C)CC2)c1 | – | inconclusive [inhibitor, single point]
60 | Cc1nn(-c2ccccc2)nc1CNC(=O)c1ncoc1-c1ccccc1 | – | active: 10 µM
61 | Cc1cccc2nc3c(nc12)-c1ccccc1C3=O | – | inconclusive [inhibitor, single point]
62 | COc1ccc(C(=O)C2CCCN(Cc3cccc(C)n3)C2)c(OC)c1 (stereo unspecified) | – | inconclusive [inhibitor, single point]
63 | CC(C)NS(=O)(=O)c1ccc(NC(=O)C(C)OC(=O)CCC(=O)c2cccs2)cc1 (stereo unspecified) | inactive: 13.2% | –
64 | CN1CCN(c2cc3c(c4c2[nH]c2ccccc24)C(=O)CC(C)(C)C3)CC1 | – | inconclusive [inhibitor, single point]
65 | COc1ccccc1NC(=O)N1CCC(c2nc3cc(C)c(C)cc3[nH]2)CC1 | – | inconclusive [inhibitor, full curve]
66 | COc1ccc(NC(=O)CC2(CC(=O)O)CCCC2)cc1 | inactive: -1.4% | –
67 | Oc1ccc(Oc2ccc3c(C(F)(F)F)cc(C(F)(F)F)nc3n2)cc1 | – | inconclusive [inhibitor, full curve]
68 | N=C1C(c2nc3ccccc3s2)=C(O)CN1NC(=O)c1c[nH]c2ccccc12 | inactive: 17.7% | –
69 | COc1ccc(Cl)cc1NC(=O)CN(C)C(=O)c1ccc2c(c1)CC(c1ccccc1)OC2=O (stereo unspecified) | – | inconclusive [inhibitor, single point]
70 | CCN(CCCNC(=O)c1ccc(N2CCCC2=O)cc1)c1cccc(C)c1 | – | inconclusive [inhibitor, partial curve]
